{
  "source": "patent US20160346320A1",
  "about": "“SUBSTANCE FOR INHIBITING TISSUE CALCIFICATION, TISSUE FIBROSATION AND AGE-RELATED DISEASES” (Fresenius Kabi Deutschland GmbH, priority 2013, published 2016)",
  "tested_on": "klotho^hm mice",
  "conditions": "treatment in drinking water, versus untreated",
  "data": [
    {"smiles": "CC(=O)Nc1nnc(S(N)(=O)=O)s1", "note": "[acetazolamide]", "values": [
      {"measurement": "lifespan", "value": "clear extension of the lifetime"}
    ]}
  ]
}
